The source of these data is paper PMC12040169 (PLOS Biology, 2025).

Molecules are shown by their SMILES. Some of the results follow.

For the experiment, the system named is T1, C. trachomatis L2/434/Bu expressing GFP (CTL2-GFP).
T1 construct: L2/434/Bu GFP intracellular growth in HeLa cells
On the set-up: species or system HeLa; C. trachomatis total inclusion area by high-content imaging, normalised to DMSO. As to conditions: total inclusion area; 28.5 h, 10 µM; inhibitor. In outline: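 After bulk GFP and resorufin fluorescence reads, cells were fixed, stained with Hoechst and imaged by high-content microscopy. Inclusion area and number (GFP) stood in for chlamydial growth, nuclei count (Hoechst) for host cell viability. MICs were derived as for the bulk readout.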
Take `Cc1cc(C)cc(S(=O)(=O)c2ccc3ccnc(N4CCCNCC4)c3c2)c1` [CBK036413C]: the “% of control remaining” value is reported as 76.4283.
The figure for `O=C1/C(=C/c2ccc3c(c2)OCO3)SC(=S)N1CCCC(=O)N1CCCc2ccccc21` [CBK264676] is 118.393; for `NC(=O)CS(=O)(=O)c1ccc(Cl)cc1` [CBK026373] it is 30.794.
With `O=C(Cn1cnc2sc(-c3ccccc3)cc2c1=O)c1ccc2c(c1)OCO2` [CBK297102], the “% of control remaining” value is listed as 95.2903.
Then `COc1ccc(/C=C(\NC(C)=O)C(=O)N2CCNCC2)cc1` [CBK077408], with 90.3151; and `CCc1c(C)nc2ccc(Br)cc2c1SCCC(=O)O` [CBK126914], with 81.8453; and `Cc1ccc(CCn2cc(C)nc2C)cn1` [CBK021231], with 90.738.
As to `CCOC(=O)Nc1ccc2c(c1)N(C(=O)CCN1CCOCC1)c1ccccc1CC2` [CBK261291C], the “% of control remaining” value came out at 109.29.
Then `Nc1cc(Cl)cc2[nH]c(=O)c3cc(Cl)ccc3c12` [CBK017144], with 25.8002.
Then `O=C(N/N=C/c1ccc(Br)s1)c1cccc([N+](=O)[O-])c1` [CBK261354], with 87.2561.
As for `COc1ccc(C(=O)Nc2nc(OCC(F)(F)F)cnc2/C=C\c2ccccc2)c(OC)c1` [CBK145367], the “% of control remaining” value came out at 117.4.
The figure for `O=C(Nc1ccccc1)c1ccc(F)cc1-n1cnnn1` [CBK287903] is 101.193; for `O=C1CCC(=O)N1CCOc1nccnc1OC1CCNCC1` [CBK075084T] it is 91.2887; for `Cn1ccnc1C1(O)CCN(C(=O)NC2CCCCC2)CC1` [CBK282275] it is 75.2616.
Turning to `COCCNC(=O)c1cnn2c(C)c(Cc3ccccc3C)c(C)nc12` [CBK160253], the “% of control remaining” value was determined as 77.8852.
The figure for `COc1cc(C)c(C)cc1S(=O)(=O)N1[C@@H](c2ccccc2F)C[C@@H]2NC(=O)CCC[C@H]21` [CBK286012] is 78.9145; for `CN1C(=O)COc2ccccc2C/C=C/C[C@@H]2[C@H]1CCCN2C(=O)Cn1ccc(=O)[nH]c1=O` [CBK292093] it is 121.267.
The figure for `CCc1ccc(OCC(=O)NC(=S)Nc2cccc3nsnc23)cc1` [CBK267173] is 99.598.
Then `CCCc1cc(O)n(-c2nc3ccccc3[nH]2)n1` [CBK270269], with 76.1059; and `Cn1c(NC(=O)CSc2nnc(Cc3cccc4ccccc34)o2)cc(=O)n(C)c1=O` [CBK266055], with 98.9224; and `O=C(CSc1ccc(Cl)cc1)Nc1cc(Cl)ccc1C(=O)O` [CBK264217], with 112.356.
For `O=C(N/N=C\c1cccc(OC(=O)c2cccs2)c1)c1ccc([N+](=O)[O-])cc1` [CBK262289], the “% of control remaining” value came to 121.523.
Regarding `O=C1CC(c2ccc(Cl)cc2)CC(=O)C1=CNCCN1CCN(C(=O)Nc2ccccc2)CC1` (stereo not shown) [CBK263671], the “% of control remaining” value is on record as 97.0229.
For `O=C(O)CCC(=O)N1N=C(c2c(-c3ccccc3)c3cc(Cl)ccc3[nH]c2=O)CC1c1ccccn1` (stereo not shown) [CBK296106], the “% of control remaining” value amounted to 153.154.
Then `CSc1nc(N)nc(SC(C(=O)O)c2ccccc2)c1C#N` (stereo not shown) [CBK267461], with 92.3526; and `CCCCOc1ccc(NC(=O)NC(=O)C2CCN(CCc3ccc(Br)cc3)CC2)cc1` [CBK035096], with 99.6845.
The figure for `CCCN(CCC)C(=O)c1ccc(-n2nc(C(=O)OCC)c(Br)c2C)cc1` [CBK114363] is 68.9867; for `c1ccc(Oc2cccc(CN3CCOCC3)c2)cc1` [CBK261870] it is 106.659; for `COc1cccc(NC(=O)N[C@H]2C[C@@H](c3nc(-c4ccccn4)no3)N(C)C2)c1` [CBK288853] it is 78.4934.
With `O=C(NCc1ccc(F)cc1)N1CCCC(CO)C1` (stereo not shown) [CBK156056], the “% of control remaining” value came out at 92.1535.
The figure for `N#Cc1ccc(NCC(=O)Nc2ncccc2O)cc1` [CBK306413] is 114.329; for `CC(Oc1cccc(Cl)c1)c1nc(-c2cccs2)no1` (stereo not shown) [CBK293984] it is 68.3966; for `O=C(Cc1ccc(F)cc1)N1CCOC(Cn2ccnc2)C1` (stereo not shown) [CBK282875] it is 95.069.
The figure for `COc1ccc(CC(=O)Nc2ccc(OCC(=O)O)cc2)cc1` [CBK264244] is 92.8996; for `CCCCN(C)c1c(C)nc2c(OCC(=O)c3ccc(F)cc3)cccn12` [CBK147172] it is 130.886.
Then `COc1ccc(-c2noc([C@@H]3C[C@H](NC(=O)c4ccc(F)cc4)CN3C)n2)cc1` [CBK288861], with 107.337.
As for `O=C(c1ccsc1NS(=O)(=O)c1ccc2ccccc2c1)N1CCOCC1` [CBK042278], the “% of control remaining” value came to 98.6532.
The figure for `O=c1[nH]n(-c2ccccc2)c(=O)n1Cc1ccccc1F` [CBK122770] is 118.01; for `C=CCc1cccc(Cl)c1OCCN1CCN(C)CC1` [CBK269734C] it is 85.902; for `CCOC(=O)C1CN(C(=O)N(CCN)Cc2ccc(Cl)cc2)CC1c1ccccc1` (stereo not shown) [CBK001682C] it is 84.3075.
For the compound `O=C(CSc1ncn(-c2ccccc2)n1)Nc1ccccc1Cl` [CBK265593], the “% of control remaining” value turned out to be 101.584.
Then `CCn1ccnc1CN1CCOC(Cc2ccccc2Cl)C1` (stereo not shown) [CBK306625], with 64.4699; and `COC(=O)N1CC2(CCCCC2NCCC(F)(F)F)c2ccccc21` (stereo not shown) [CBK083539T], with 99.9594; and `CC(C)(CC(=O)O)CC(=O)Nc1cc(S(=O)(=O)N2CCCC2)ccc1Cl` [CBK296702], with 120.274.
Then `O=C(NCc1ccccn1)c1cncc(Br)c1` [CBK265226], with 78.8311.
For the compound `C=CCNc1nccnc1-c1ccc(C(C)=O)s1` [CBK037052], the “% of control remaining” value is recorded as 131.003.
The figure for `Nc1cc2cccnc2nc1-c1ccncc1` [CBK067601] is 100.868; for `COC(=O)c1ccc(NS(=O)(=O)c2cccc3cccnc23)cc1` [CBK028694] it is 98.2458.
The figure for `C=C(C)CN1CCN(C(=O)c2cc3cccc(OC)c3oc2=O)CC1` [CBK269211] is 78.8993; for `Nc1ncc(-c2ccoc2)nc1NCc1ccco1` [CBK063652] it is 90.8799.
Then `Fc1cccc2sc(Nc3nnc(-c4ccco4)o3)nc12` [CBK287480], with 97.3856; and `Fc1ccc(CNCCN2CCOCC2)cc1` [CBK278192C], with 72.076.
For the compound `COCCNc1nc2c(c(N3CCC(C#N)CC3)n1)CCNCC2` [CBK307706], the “% of control remaining” value is recorded as 77.3035.
Turning to `CCN1CC2(CCN(CCCCC3NC(=O)NC3=O)CC2)c2ccccc21` (stereo not shown) [CBK131489], the “% of control remaining” value is given as 46.2699.
On to `CCN(Cc1ccncc1)C(=O)NC(C)c1ccccc1` (stereo not shown) [CBK155156], for which the “% of control remaining” value was 106.802.
The figure for `Cc1cc(C)n2c(SCc3ccccc3)nnc2n1` [CBK025780] is 90.1222; for `NC(=O)CN1CCC(C(=O)c2ccc(F)cc2)CC1` [CBK149130] it is 104.218; for `COc1ccc(-c2cc(C(=O)NCc3ccc4c(c3)OCO4)cnc2-c2ccccc2)cn1` [CBK037571] it is 101.419.
Take `c1coc(CNc2cncc(-c3ccc4c(c3)OCO4)n2)c1` [CBK065930]: the “% of control remaining” value was determined as 143.221.
Then `COc1cc(NC(=O)c2cc3c4c(sc3nc2N)CN(C)CC4)c(OC)c(OC)c1` [CBK269597], with 105.135.
In the case of `C=CCOC(=O)C1=C(C)N=C2SCCC(=O)N2C1c1ccc(SC)cc1` (stereo not shown) [CBK073405], the “% of control remaining” value is reported as 80.225.
As to `Cc1ccsc1CN(Cc1nccn1C)CC(C)O` (stereo not shown) [CBK282976], the “% of control remaining” value amounted to 86.8632.
As to `Cc1nc2ccccn2c1CN1CCC(N2CCCC2)CC1` [CBK281730], the “% of control remaining” value is given as 87.0365.
The figure for `COc1nccnc1OC1CCN(CCc2ccc(F)cc2)CC1` [CBK084259] is 103.01; for `CN1CCN(C(=O)c2ccc(NS(=O)(=O)c3ccc(Oc4ccccc4)cc3)cc2)CC1` [CBK034559] it is 82.9106.
On to `Cc1cccc(C)c1OCC(=O)Nc1c[nH]c(=O)[nH]c1=O` [CBK263358], for which the “% of control remaining” value was found to be 39.6595.
For `CC(=O)c1cn(CCC(=O)NC2CCCOC2)c2ccccc12` (stereo not shown) [CBK282515], the “% of control remaining” value is 110.811.
The figure for `CCN(CC)CCn1cc(C2CCCN(C)CC2)c2ccccc21` (stereo not shown) [CBK023788B] is 68.9539; for `CC(=O)Nc1ccc(-c2ccc(C(=O)N3CCN(C(=O)c4ccco4)CC3)cn2)cc1` [CBK160186] it is 73.8755; for `Cc1ccccc1-n1c(C)cc(C(=O)CSc2nncn2C)c1C` [CBK298330] it is 91.2975.
Take `Cc1cnn(-c2cc(Oc3ccccc3)ncn2)c1` [CBK287276]: the “% of control remaining” value turned out to be 87.928.
The figure for `CN1CCN(C)C(CNC(=O)c2ccc(-c3ccccc3CO)cc2)C1` (stereo not shown) [CBK307475] is 104.19; for `O=C1CC2(CCN(C(=O)C3CCCC3)CC2)Oc2ccc(Cl)cc21` [CBK283625] it is 79.9941.
Regarding `O=C(CCc1ccno1)NC(Cc1ccsc1)c1cccnc1` (stereo not shown) [CBK285395], the “% of control remaining” value was 115.692.
Regarding `O=C(Nc1cccc2[nH]ccc12)c1ccc(Br)cc1Cl` [CBK159643], the “% of control remaining” value was 76.5642.
Then `CN(C)c1cccc(C(=O)N2CC[C@@H](c3ccccc3)[C@H](O)C2)c1` [CBK283713], with 119.812; and `CCOc1ccccc1NC(=O)NC1CC2CCC(C1)N2Cc1ccccc1` (stereo not shown) [CBK116294], with 110.413.
`O=C(NCCN1CCC(O)(c2cccc(F)c2)CC1)C1CCCC1` [CBK283285]: the “% of control remaining” value is listed as 107.133.
Consider `Cc1cc(NC(=O)c2ccc(Cl)c([N+](=O)[O-])c2)nc2c1c(=O)oc1ccccc12` [CBK291263], for which the “% of control remaining” value was determined as 104.595.
`O=C(NCc1ccccn1)Nc1cccc(Cl)c1` [CBK058569]: the “% of control remaining” value is on record as 40.6477.
Turning to `O=C(Cn1cccn1)NC(Cc1ccsc1)c1ccccn1` (stereo not shown) [CBK285284], the “% of control remaining” value came to 79.5193.
Consider `CCNC(=O)C1CCN(Cc2c[nH]nc2-c2ccc(F)cc2)C1` (stereo not shown) [CBK307438], for which the “% of control remaining” value worked out at 59.3591.
